# In PubChem BioAssay AID1508642 (National Center for Advancing Translational Sciences (NCATS), 2021):
# The whole screen tested about 43,000 compounds, of which about 200 (0.47%) were called active. Not shown: some 12% with an inconclusive outcome. The call rests on the fitted dose curve; in most records, active means well fitted cell-killing curve with a large enough effect; inconclusive means small, poorly fitted or top-dose-only effect, or effect the other way; inactive means flat fitted curve, though single readings scatter. The list shows a part of the results.
# Assay: Cell viability qHTS assay in S16 Pmp22-F2sN cells; further: nearly all actives have a fitted effect of over 65% in size
# Conditions: S16 Pmp22-F2sN Schwann cells viability, CellTiter-Glo, 24 h; series mostly up to 57.5 µM; activity change, negative = cytotoxicity: at the top concentration
# Procedure, shortened: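 Used to flag compounds lowering reporter output through toxicity, this quantitative HTS measures ATP-based CellTiter-Glo luminescence in S16 Pmp22-F2sN Schwann cells after 24 h compound exposure at 37C.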
# On the % scale 0 is the no-effect control and ±100 the full control effect; potency means the concentration at half of the fitted maximal effect.
Compound,"activity change, negative = cytotoxicity",Potency
O=C(CC1NCCNC1=O)Nc1ccccc1F (stereo not given),inactive: -1.23%,
CCOC(=O)c1c(-c2ccc(C)cc2)csc1NC(=O)c1cc(=O)c2cc(Cl)ccc2o1,inactive: 7.14%,
Cc1ccc(Cl)cc1N1CCN(C(=O)c2cc3c(=O)n(C)c4ccccc4c3s2)CC1,inactive: -2.29%,
CCOC(=O)CC(=O)CSc1nc2ccccc2c(=O)n1-c1ccc(C(=O)NCCOC)cc1,inactive: 0.193%,
COC(=O)c1ccc(C(=O)OC)c(NC(=O)N2CC3CCCN3c3ccccc32)c1 (stereo not given),inactive: -9.66%,
CCN1CCN(c2nnc(-n3cccc3C(=O)Nc3cccc(OC)c3)s2)CC1,inactive: 8.14%,
O=C(Cn1ccn(-c2ccc(F)c(F)c2)c(=O)c1=O)c1ccc(F)cc1,inactive: 0.85%,
CC(C)c1nn2c(=O)cc(COC(=O)CNC(=O)c3ccccc3Cl)nc2s1,inactive: -25.8%,
CCn1c(=O)sc2cc(NC(=O)c3cccc(OC)c3)ccc21,inactive: -12.7%,
COc1ccc(C2CC(=O)c3c(C)nc(N4CCN(C=O)CC4)nc3C2)c(OC)c1 (stereo not given),inactive: 22%,
Cc1nnc(NC(=O)CSc2nccn2-c2ccc(Cl)cc2)s1,inactive: -7.71%,
CCOc1ccc(Cn2c(CNS(=O)(=O)c3c(C)cc(C)cc3C)nc3cccnc32)cc1,inactive: 2.81%,
O=C(Cn1cc(C(=O)C2CC2)c2ccccc21)Nc1ccc(Br)cc1,inactive: 1.15%,
COc1ccccc1N1CCN(c2ccc(-c3nc(-c4ccccc4)no3)cc2[N+](=O)[O-])CC1,inactive: 6.88%,
CC(=O)c1ccc(NC(=O)CCCc2nc(-c3cccc(C)c3)no2)cc1,inactive: 8.4%,
Cc1ccc(C)c(Cn2c(=O)n(CCCCCC(=O)NCc3ccc4c(c3)OCO4)c(=O)c3sccc32)c1,inactive: -2.83%,
CCOC(=O)c1ccc(CN(Cc2ccccc2C)S(=O)(=O)c2ccc(F)c(C(=O)Nc3cccc(OC)c3)c2)cc1,inactive: -1.22%,
Cc1c(C)n(Cc2ccc(F)cc2)c2ccc(C(=O)Nc3ccc(Cl)cc3)cc12,inactive: -9.82%,
O=C(CC1C(=O)N(c2ccccc2)C(=O)N1Cc1ccc2c(c1)OCO2)Nc1ccccc1 (stereo not given),inactive: 3.68%,
O=C1CC(c2nnc(Cc3ccccc3Cl)o2)CN1c1ccccc1 (stereo not given),inactive: -1.56%,

Compound,"activity change, negative = cytotoxicity",Potency
Cc1ccc(-c2cc3c(n2-c2ccccc2F)CC(C)(C)CC3=O)cc1,inactive: -3.75%,
COc1ccc(C)cc1NC(=O)N1CCN(c2cc(-c3noc(C)n3)ccc2C)CC1,inactive: -7.56%,
O=C(CN1C(=O)CSc2ccc(S(=O)(=O)N3CCCC3)cc21)NCc1ccc(Cl)cc1,inactive: 10.5%,
COc1ccc(NC(=O)CN2C(=O)COc3ccc(S(=O)(=O)N4CCCCC4)cc32)cc1Cl,inactive: 8.47%,
COc1ccc(NC(=O)c2oc3ccccc3c2NC(=O)Cc2cccs2)cc1,inactive: -3.06%,
Cc1ccc(NC(=O)c2sc3nc(-c4ccc(F)cc4)ccc3c2N)cc1F,inactive: 2.74%,
CN1CCc2nc3sc(C(=O)Nc4cccc(C#N)c4)c(N)c3cc2C1,inactive: 21.9%,
Cc1cc(C)cc(Nc2nnc(-n3nc(C)cc3C)c3ccccc23)c1,inactive: -24.1%,
CC1=C(c2ccc(C)c(C)c2)S(=O)(=O)N=C1N1CCC(C(=O)Nc2cccc(F)c2)CC1,inactive: 2.36%,
COc1cccc(NC(=O)CSc2nnc(-c3cccs3)o2)c1,inactive: 8.76%,
COc1ccccc1NC(=O)Cn1c(=O)n(-c2cccc(Cl)c2)c(=O)c2c1c1cc(C)ccc1n2C,inactive: 11.8%,
CCc1ccccc1NC(=O)CSc1ncc(S(=O)(=O)c2ccccc2)c(=O)[nH]1,inactive: 8.45%,
Cc1cccc(OCC(=O)Nc2ccc(Cl)c(-c3nc4ccccc4[nH]3)c2)c1,inactive: 0.498%,
COc1cccc(C(=O)Nc2c(C(=O)c3ccc(F)cc3)oc3ccccc23)c1,inactive: 4.45%,
COc1cc(C2c3c(oc4ccc(C)cc4c3=O)C(=O)N2Cc2ccccc2)ccc1O (stereo not given),inactive: 6.2%,
Cc1oc(-c2ccc(Cl)cc2)nc1CSCC(=O)NCc1ccccc1Cl,inactive: -13.4%,
CC(CNC(=O)Cn1c(-c2cccs2)cc2ccccc21)c1ccccc1 (stereo not given),inactive: -3.63%,
CCC(=O)N1CCc2cc(Br)cc(S(=O)(=O)N3CCCC(C(=O)NCc4ccc(OC)cc4)C3)c21 (stereo not given),inactive: 20.6%,
COC(=O)Cc1c(C)c2ccc3c(c2oc1=O)CN(Cc1ccccc1OC)CO3,inactive: 9.13%,
Cc1ccc2c(CC(=O)N(Cc3ccc(Cl)cc3)Cc3ccco3)coc2c1,inactive: -0.88%,

Compound,"activity change, negative = cytotoxicity",Potency
Cc1ccccc1Nc1cc(C(=O)NCCc2ccc(Cl)cc2)c2ccccc2n1,inactive: -26.5%,
CCCOc1ccc(C2c3c(-c4ccccc4O)n[nH]c3C(=O)N2CCCOCC)cc1OCC (stereo not given),inactive: -22.8%,
O=C(Nc1cccc(F)c1)c1cccc2c1C(=O)N(C1CCCCC1)C2,inactive: -18.9%,
O=C(Nc1ccc(F)cc1)C1CCCN(c2ncnc3c2nc2n3CCCCC2)C1 (stereo not given),inactive: 3.26%,
Cc1ccc(N(C)C(=O)Cn2cc(S(=O)(=O)N3CCCC3)c(S(=O)(=O)N3CCCC3)c2)cc1,inactive: 2.32%,
COc1ccc(CNC(=O)c2cc3c(=O)n4cccc(C)c4nc3s2)cc1,inactive: 2.11%,
Cc1c(C(=O)Nc2ccc(F)c(F)c2)oc2ccc(S(=O)(=O)N(C)C3CCCCC3)cc12,inactive: -3.9%,
CCOC(=O)c1ccc(NC(=O)C(C)N(c2ccc(OCC)cc2)S(C)(=O)=O)cc1 (stereo not given),inactive: 1.14%,
CCOC(=O)c1[nH]c(C)c(CCC(=O)NC(C)c2ccccc2)c1C (stereo not given),inactive: -9.15%,
O=C(Nc1cc2ccc(O)cc2oc1=O)c1ccc(F)cc1,inactive: -5.69%,
CCN(CC)CCn1c2c(c(SCC(=O)Nc3cccc(C(F)(F)F)c3)nc1=O)CCC2,inactive: -15.8%,
Cc1cccc(CNC(=O)Cc2ccc(NC(=O)N3CCCCc4ccccc43)cc2)c1,inactive: -2.23%,
CCOc1ccc(-c2cn3c(n2)sc2cc(C(=O)NCCCN(CC)CC)ccc23)cc1,,active: 10 µM
COc1ccc(CCNC(=O)CCCCn2c(=O)c3ccccc3n(Cc3ccc(Cl)cc3)c2=O)cc1OC,inactive: 10.5%,
COc1cccc(CNC(=O)c2oc3ccc4c(c3c2C)C(=O)CC(C)(C)O4)c1OC,inactive: -27.6%,
COc1ccc(NS(=O)(=O)c2ccc3c(c2)CC(C)N3C(C)=O)c(OC)c1 (stereo not given),inactive: -26.4%,
Cn1c(=O)c2c(n3ncnc13)NC(=O)CC2c1cccc(F)c1 (stereo not given),inactive: -4.33%,
CCOC(=O)C1=C(CN2CCN(c3cccc(OC)c3)CC2)NC(=O)NC1c1ccc(OC)cc1 (stereo not given),inactive: -4.45%,
COc1ccc(NC(=O)c2oc3c(c2C)-c2nn(Cc4ccccc4Cl)cc2CC3)cc1OC,inactive: -3.72%,
Cc1ccc(-n2c(=O)c3c(cnn3C)n(CC(=O)Nc3c(C)cccc3C)c2=O)cc1,inactive: 10.2%,
